# ChEMBL document CHEMBL5606460, “ASAP - DENV-2 NS2B-NS3 protease fluorescence single point” (2024)
# Hit rate of the full screen: of about 2,000 compounds, about 110 (5.5%) showed an effect of 50% or more. The list shows a part of the results.
# Target: Genome polyprotein (dengue virus type 2) (UniProt P29990)
# [1] = Thailand/16681/1984, Concentration 25.0 uM, Number of replicates 1.0
smiles,measurement,setting,value
CNS(=O)(=O)c1ccc(CNCc2ccc(N3CCN(C)CC3)cc2)cc1,inhibition,"Thailand/16681/1984, Concentration 49.5 uM, Number of replicates 2.0, Standard deviation 0.2679515396874046 %",-1.41%
same,inhibition,"Thailand/16681/1984, Concentration 99.01 uM, Number of replicates 2.0, Standard deviation 0.0046358372348345115 %",-0.423%
same,inhibition,"Thailand/16681/1984, Concentration 198.0 uM, Number of replicates 2.0, Standard deviation 1.744466130987394 %",0.949%
N#Cc1cnn(-c2ccc([N+](=O)[O-])cc2)c1NC(=O)C1CCN(c2ccc(C=O)cc2)CC1,inhibition,[1],18.2%
O=Cc1ccc(N2CCC(C(=O)N3CCC(c4nc5ccccc5s4)CC3)CC2)cc1,inhibition,[1],14.3%
CCc1cccc2[nH]c(C(=O)N3C[C@H](n4cc(CO)nn4)CCC3(C)C)cc12,inhibition,"Thailand/16681/1984, Concentration 49.5 uM, Number of replicates 2.0, Standard deviation 2.369908946691566 %",-0.621%
same,inhibition,"Thailand/16681/1984, Concentration 99.01 uM, Number of replicates 2.0, Standard deviation 3.0056614926708067 %",1.41%
same,inhibition,"Thailand/16681/1984, Concentration 198.0 uM, Number of replicates 2.0, Standard deviation 1.5510891618348923 %",3.23%
COc1ccccc1OCCCN(C)C(=O)C1CCN(c2ccc(C=O)cc2)CC1,inhibition,[1],12%
O=Cc1ccc(N2CCC(C(=O)N3CCN(c4ccnc5cc(Cl)ccc45)CC3)CC2)cc1,inhibition,[1],1.86%
COc1ccc(F)c(-c2nn(C)cc2NC(=O)c2ccccc2C(F)(F)F)c1,inhibition,"Thailand/16681/1984, Concentration 49.5 uM, Number of replicates 2.0, Standard deviation 3.583319549695768 %",-2.64%
same,inhibition,"Thailand/16681/1984, Concentration 99.01 uM, Number of replicates 2.0, Standard deviation 4.648656873158677 %",-2.47%
same,inhibition,"Thailand/16681/1984, Concentration 198.0 uM, Number of replicates 2.0, Standard deviation 3.7890463989356435 %",-2.09%
O=Cc1ccc(N2CCC(C(=O)Nc3nc4cc(Cl)ccc4s3)CC2)cc1,inhibition,[1],11.6%
O=Cc1ccc(N2CCC(C(=O)NC34C[C@@H]5C[C@@H](CC(O)(C5)C3)C4)CC2)cc1,inhibition,[1],15.4%
Cc1nc2ccc(-c3ccccc3C(=O)Nc3cnn(C)c3)cn2n1,inhibition,"Thailand/16681/1984, Concentration 49.5 uM, Number of replicates 2.0, Standard deviation 3.543719624703675 %",-3.16%
same,inhibition,"Thailand/16681/1984, Concentration 99.01 uM, Number of replicates 2.0, Standard deviation 3.2974266339695943 %",-3.74%
same,inhibition,"Thailand/16681/1984, Concentration 198.0 uM, Number of replicates 2.0, Standard deviation 0.22311235049363462 %",-0.758%
O=Cc1ccc(N2CCC(C(=O)N3CCC[C@H](C(=O)c4ccc(F)cc4)C3)CC2)cc1,inhibition,[1],12.9%
CNc1ccccc1C(=O)Nc1ccccc1Cc1cccc2c(CO)cc(C)nc12,inhibition,"Thailand/16681/1984, Concentration 49.95 uM, Number of replicates 2.0, Standard deviation 0.9187611737377075 %",-6.32%
same,inhibition,"Thailand/16681/1984, Concentration 99.9 uM, Number of replicates 2.0, Standard deviation 0.9402243720481833 %",-7.75%
O=Cc1ccc(N2CCC(C(=O)Nc3ccc(F)c(F)c3Br)CC2)cc1,inhibition,[1],12.7%
NC[C@H]1C[C@@H](NC(=O)[C@@H](NC(=O)OCc2ccccc2)c2ccc(OCc3ccccc3)cc2)C1,inhibition,"Thailand/16681/1984, Concentration 49.5 uM, Number of replicates 2.0, Standard deviation 0.5017181762110399 %",0.286%
same,inhibition,"Thailand/16681/1984, Concentration 99.01 uM, Number of replicates 2.0, Standard deviation 0.21656888367492427 %",3.78%
same,inhibition,"Thailand/16681/1984, Concentration 198.0 uM, Number of replicates 2.0, Standard deviation 0.021656062289261615 %",26.3%
NC(=O)c1cn(C[C@H]2CCCN2c2ccc3c(Cl)cc(Cl)cc3n2)nn1,inhibition,"Thailand/16681/1984, Concentration 49.5 uM, Number of replicates 2.0, Standard deviation 0.09143556479565608 %",2.52%
same,inhibition,"Thailand/16681/1984, Concentration 99.01 uM, Number of replicates 2.0, Standard deviation 2.0692726945713575 %",12%
same,inhibition,"Thailand/16681/1984, Concentration 198.0 uM, Number of replicates 2.0, Standard deviation 0.7581530210542139 %",8.44%
O=Cc1ccc(N2CCC(C(=O)N3CCNC(=O)[C@@H]3c3ccccc3)CC2)cc1,inhibition,[1],13.4%
CN(Cc1nccn1Cc1ccccc1)C(=O)C1CCN(c2ccc(C=O)cc2)CC1,inhibition,[1],12.9%
CNC(=O)C1CN(S(=O)(=O)c2ccc(Oc3ccccc3Cl)cc2)C1,inhibition,"Thailand/16681/1984, Concentration 49.5 uM, Number of replicates 2.0, Standard deviation 0.6617609868736767 %",-2.91%
same,inhibition,"Thailand/16681/1984, Concentration 99.01 uM, Number of replicates 2.0, Standard deviation 1.3201843648137757 %",-2.25%
same,inhibition,"Thailand/16681/1984, Concentration 198.0 uM, Number of replicates 2.0, Standard deviation 0.8810764542255104 %",-0.895%
O=Cc1ccc(N2CCC(C(=O)N3CCN(c4nccs4)CC3)CC2)cc1,inhibition,[1],13.6%
O=Cc1ccc(N2CCC(C(=O)N3CC(OCc4ccccc4)C3)CC2)cc1,inhibition,[1],13.4%
O=C(O)[C@H](c1c[nH]c2ccccc12)N1CCC(c2cnc3ccc[nH]c2-3)CC1,inhibition,"Thailand/16681/1984, Concentration 49.5 uM, Number of replicates 2.0, Standard deviation 2.9336110336729484 %",-1.93%
same,inhibition,"Thailand/16681/1984, Concentration 99.01 uM, Number of replicates 2.0, Standard deviation 1.2688833051000123 %",-1.4%
same,inhibition,"Thailand/16681/1984, Concentration 198.0 uM, Number of replicates 2.0, Standard deviation 1.8509089452057481 %",0.519%
COc1cc(CC(=O)NCc2cccnc2)nc(N2CCNCC2)n1,inhibition,"Thailand/16681/1984, Concentration 49.5 uM, Number of replicates 2.0, Standard deviation 1.473545535483215 %",-5.12%
same,inhibition,"Thailand/16681/1984, Concentration 99.01 uM, Number of replicates 2.0, Standard deviation 1.7989399422367844 %",-4.77%
same,inhibition,"Thailand/16681/1984, Concentration 198.0 uM, Number of replicates 2.0, Standard deviation 1.3802101593440819 %",-3.61%
Cc1cc(CO)c2cccc(Cc3ccccc3NC(=O)CCC3CCNCC3)c2n1,inhibition,"Thailand/16681/1984, Concentration 49.95 uM, Number of replicates 2.0, Standard deviation 0.7055143046624119 %",-4.33%
same,inhibition,"Thailand/16681/1984, Concentration 99.9 uM, Number of replicates 2.0, Standard deviation 1.236554143481246 %",6.21%
Cc1c(C(=O)NCc2nnc([C@H]3CCCO3)[nH]2)ccc(O)c1NC(=O)c1ccncc1F,inhibition,"Thailand/16681/1984, Concentration 49.5 uM, Number of replicates 2.0, Standard deviation 0.7978838014742209 %",-1.49%
same,inhibition,"Thailand/16681/1984, Concentration 99.01 uM, Number of replicates 2.0, Standard deviation 0.2367526511785791 %",-0.579%
same,inhibition,"Thailand/16681/1984, Concentration 198.0 uM, Number of replicates 2.0, Standard deviation 0.9012929276836096 %",0.488%
